Drawing on the RNAGym collection of RNA variant scans (doi:10.7554/elife.90254), this text covers self-cleavage for 167 variants.

The labels stand for the following.
B1: OR4K15 (parent)
chain: GUUAACGGUCAUAGGCCAUGGAAACUAGGAGCACCAUUUCGCUGCCAGUGAAGAAAUGAACAAAGAAAAUCUGGGCCAGGCAGGCAUCAAAAGAAAUAGUCUUGCGCUCAACCAGAAAGUCUGUAAUCAUUUUAAGGGUA

The source gives no read counts; variants with many changes may rest on few reads.

The variants in the series derive from B1. The series can be described thus: self-cleavage, relative activity (ratio to wild type); higher = more cleavage; in vitro, sequencing; the parent is a self-cleaving ribozyme.
With U38C U43C A110G A114G U120C, the self-cleavage was 0.

Consider U38C A94U A110U, for which the self-cleavage is 1.54.

On to G41A A59G U108C, for which the self-cleavage was determined as 0.

With U38C A51C A78U A114G, the self-cleavage stood at 0.05.

With U39C A59G A63C A116G, the self-cleavage amounted to 1.04.

For U38C A54U A98G A110G, the self-cleavage came out at 0.05.

Consider U38C U72A U132C, for which the self-cleavage came out at 0.29.

U38C A89C U120C: the self-cleavage was determined as 0.94.

In the case of U39C A68G A78U, the self-cleavage is 0.37.

For U38C C61U A64G, the self-cleavage was determined as 1.19.

For U38A A68G A90G, the self-cleavage worked out at 1.72.

Take U38A A69C U108A U131C: the self-cleavage was 0.

On to C40U A47U A67U U72C U108A, for which the self-cleavage was 0.01.

For the variant U39A A86U G137A, the self-cleavage came to 2.41.

Consider U39A A63G A82U, for which the self-cleavage amounted to 0.18.

Consider U39C A59G U87C, for which the self-cleavage was determined as 0.14.

In the case of U39C U43C A54U C101A, the self-cleavage is 0.12.

Take U38C A54G A59G A89G A94G: the self-cleavage is 1.14.

Take U39C A91G A125G: the self-cleavage amounted to 0.11.

For the variant U38C A67G A69G, the self-cleavage turned out to be 1.64.

For U39C A91G U108C U130C, the self-cleavage is 0.02.

Consider U38A G119A U130C, for which the self-cleavage turned out to be 0.55.

As to U38C A51G A52G U131A, the self-cleavage was 0.95.

As to U39A U43C U57A U72C, the self-cleavage came out at 0.2.

Regarding U39A A68G G83U, the self-cleavage was 0.99.

As to U38C A125G A140G, the self-cleavage was 0.97.

In the case of U39C A60G U72A A90G, the self-cleavage was 0.17.

As to U39C U122C U127A, the self-cleavage was determined as 1.45.

On to U38C A51G A55G A62G A90G U103C, for which the self-cleavage turned out to be 0.48.

Consider U39C A54G A64G, for which the self-cleavage was 0.63.

With U39C U49C A78U A114G U132C, the self-cleavage was 0.02.

On to U38C A62U C128A, for which the self-cleavage was 1.15.

As for U39C A59G A68G A110G, the self-cleavage turned out to be 0.06.

For U39C A59G U131C, the self-cleavage came out at 0.89.

For the variant U38C U57C G74A A94G A114G, the self-cleavage is 0.07.

Take U39C U57C A126G A140U: the self-cleavage turned out to be 0.24.

Turning to U39C G41A A95G, the self-cleavage amounted to 2.32.

For U39C A47U U100C, the self-cleavage worked out at 2.1.

Consider U39A A116G A117U A126G, for which the self-cleavage came out at 0.56.

Take U39A A116C U127A: the self-cleavage came out at 0.15.

Consider U39C A51U A94U, for which the self-cleavage came to 1.5.

For U39C A55G U57A A59G U131C U139C, the self-cleavage came out at 1.32.

For U38C U43C A60G U70A A118U, the self-cleavage was found to be 0.35.

For U38C A56G U97C, the self-cleavage is 1.71.

U39A G44A A54C: the self-cleavage came out at 0.94.

As to U39C A117U U122C, the self-cleavage was 0.84.

Regarding G41A A69G A91C A118G, the self-cleavage came out at 0.88.

For U38C U49C C105U, the self-cleavage is 0.25.

Take U38C A51G A63G U130G: the self-cleavage worked out at 1.75.

Consider U39C A89U A118U, for which the self-cleavage came to 0.74.

With U38C U70C A90G, the self-cleavage is 1.21.

U38C U49G A55G A82G A110G: the self-cleavage was 0.1.

For the variant U39C A67U A116G, the self-cleavage turned out to be 1.68.

For the variant U38C U43A U72C U100C, the self-cleavage came to 0.52.

For the variant U39C C85U A129G, the self-cleavage is 1.05.

Take U38C U39C A94G A95G A110U U139C: the self-cleavage stood at 1.4.

On to U38C A129G G137U, for which the self-cleavage was found to be 1.09.

As to U38C U72C A94C, the self-cleavage turned out to be 0.13.

Take U39C A52G A64G U108C: the self-cleavage amounted to 0.02.

In the case of G41A A62G A64G A135G, the self-cleavage turned out to be 0.58.

Regarding U39A A51G A116U U120A, the self-cleavage amounted to 0.1.

Consider U38C A55G U100C, for which the self-cleavage is 1.4.

With U39C U43C U49G A111G, the self-cleavage was determined as 0.08.

For the variant U39C U57A A62G G74U A118G, the self-cleavage came to 0.07.

Take U39C A67G U133C: the self-cleavage came to 1.65.

With U39C A54G A111G A140G, the self-cleavage stood at 0.01.

On to C40U A60G U132C, for which the self-cleavage was 1.74.

On to U38A G41A A95G A125U U132C, for which the self-cleavage came to 1.58.

Consider U38C A59U U100C U132G, for which the self-cleavage came to 1.65.

Consider G41A A64U U87C, for which the self-cleavage is 1.76.

On to U38C A52G A67G A96G U103C, for which the self-cleavage came to 1.36.

Take U38C A59G G123A: the self-cleavage came out at 2.03.

In the case of U39C U70C A94G A116G, the self-cleavage was 1.56.

For U39C U49C A54U, the self-cleavage worked out at 0.4.

With U39C A62U A67G A116G, the self-cleavage came out at 0.18.

As to U38C C40A A90G A92G U120C A126G, the self-cleavage came out at 0.13.

Regarding U38A A62U A82G, the self-cleavage came out at 0.65.

With U39C U43C U139C, the self-cleavage came out at 0.98.

Consider U38A U43A A89G A94G U131C, for which the self-cleavage is 1.57.

Regarding U39C A51G A62G U122C, the self-cleavage amounted to 1.87.

Regarding U39C A59G A68G C101U, the self-cleavage turned out to be 0.3.

Regarding U38C A51U A89G A91G, the self-cleavage amounted to 1.27.

As to U38C A59G A126G, the self-cleavage was 0.34.

Consider U38C G93U U133C, for which the self-cleavage amounted to 2.12.

With U38C A62U A126G, the self-cleavage worked out at 1.17.

For U39C U43C A92G, the self-cleavage worked out at 1.67.

As to U39C A63U A82G, the self-cleavage is 0.63.

U39C A54G A82U A90G A92G A140G: the self-cleavage turned out to be 0.21.

Turning to U39C U57C U127C, the self-cleavage came to 0.99.

In the case of U38C A96C U97A, the self-cleavage was determined as 1.46.

Regarding U39G A47G A117U, the self-cleavage is 0.59.

On to U39C A54G A78G A82U G137A, for which the self-cleavage was determined as 0.22.

On to C40A U43A U49A G53A A59G A129G A135C, for which the self-cleavage came to 0.39.

Consider U39C A82U A116U U139A A140G, for which the self-cleavage stood at 0.04.

Consider U39C A89G A94G A114U, for which the self-cleavage is 0.01.

As to U39C G50U A117G G123A, the self-cleavage was determined as 2.02.

For the variant U38C A54G A62G A94G A95G U108C, the self-cleavage is 0.01.

For the variant U39C A60G A118U, the self-cleavage was 0.52.

As for U38C U49C A78G U131C, the self-cleavage worked out at 0.13.

For the variant U39C A54G A60U A117G U127C, the self-cleavage came to 1.24.

In the case of U39C A60G A86G, the self-cleavage came to 0.65.

Take U39C C42A A62G U132C: the self-cleavage amounted to 0.42.

Turning to U38C A89G A92G A94G, the self-cleavage was 2.37.

U38C A63U A125G: the self-cleavage is 0.59.

Take U39C A54G A55U A56U: the self-cleavage came out at 1.06.

For the variant U38C G41U U57C, the self-cleavage was 2.83.

Turning to U39A A54G A68G, the self-cleavage was 1.07.

For U39C A51G A86G A89G, the self-cleavage is 0.74.

Turning to U38C U108A A114U, the self-cleavage was determined as 0.

In the case of U39C A54C A89U, the self-cleavage was 1.71.

For U39C A90G U120C, the self-cleavage worked out at 0.46.

U38C A55G A90G U100C A116G A129G: the self-cleavage was determined as 1.28.

As for C40U A67G G74C, the self-cleavage amounted to 0.18.

As for U39C A78U U132G, the self-cleavage came to 0.19.

U39A U49C U72C U131C: the self-cleavage turned out to be 0.13.

On to U38C A62U A68G, for which the self-cleavage was determined as 0.95.

With C40U A51U A62G, the self-cleavage worked out at 1.1.

Turning to U39C A51G A52G, the self-cleavage came to 0.76.

Turning to U38C U97C A134G, the self-cleavage came out at 0.86.

As to U39A U87C U102C A135U, the self-cleavage stood at 1.85.

Regarding U38C A47U A69G, the self-cleavage amounted to 1.36.

Regarding U38C U43C A56G U132G, the self-cleavage was determined as 1.02.

As for U38C A54G A64G U131C, the self-cleavage worked out at 1.53.

Regarding U38C U57A A68G U108C A114G, the self-cleavage was determined as 0.

Regarding U38C A59G A68U, the self-cleavage worked out at 0.85.

Consider U39A C46A A67G, for which the self-cleavage worked out at 0.62.

Turning to U39C A82G A98U C112U, the self-cleavage stood at 0.03.

As to U38C U57G A78U, the self-cleavage was 0.27.

As to U39A A51G A86U A95G, the self-cleavage is 2.52.

Consider U39C A66G U103C, for which the self-cleavage amounted to 0.7.

Consider U38C U72C A116U, for which the self-cleavage was 0.08.

As to U39A A66G U130C, the self-cleavage stood at 1.12.

As to U39A A82U A129C, the self-cleavage turned out to be 0.06.

For the variant U38A G79A A91G U133A, the self-cleavage came out at 0.07.

With U39A U49C A135G, the self-cleavage came out at 0.46.

In the case of U38A A78G U120A, the self-cleavage amounted to 0.26.

Regarding U38C A63G A64G, the self-cleavage stood at 1.42.

On to U39A A64G U70C, for which the self-cleavage was 0.98.

For the variant U39C A51G A55G G73A, the self-cleavage turned out to be 0.24.

In the case of C40U A96G A126G, the self-cleavage was determined as 1.3.

Take U38C A64G A110G U127C: the self-cleavage is 0.1.

In the case of U38A U100C U102C, the self-cleavage was determined as 1.47.

For the variant U38C A69G G136A, the self-cleavage is 1.21.

With U39C A51U A62G A78G A118U, the self-cleavage worked out at 0.12.

As to U38A A64G A86U U122C, the self-cleavage was determined as 1.09.

Regarding U38C U43C A69G A96U A116G, the self-cleavage stood at 0.83.

In the case of U39C A54G A60U A98G A111C, the self-cleavage came to 0.02.

Take U38G A92G U130C: the self-cleavage was found to be 0.88.

On to U39C A67U A92U A96G U132A, for which the self-cleavage is 2.81.

Consider U39A A78C U124C, for which the self-cleavage stood at 0.07.

In the case of U39C A59G A60G A62G, the self-cleavage stood at 0.35.

Turning to U39A A54G A66G U103A, the self-cleavage turned out to be 0.54.

On to U38C A51G A116G A117G U122C, for which the self-cleavage was determined as 0.07.

Regarding U38C A114U A135G, the self-cleavage came to 0.03.

U39C U57C A60G: the self-cleavage was determined as 0.97.

As for U38C A55G U132C, the self-cleavage came to 1.95.

As for U39C A82G A92U, the self-cleavage was determined as 0.43.

Turning to U39C A67U A98G U102C U130C, the self-cleavage was 2.8.

As to U39A A129U A140G, the self-cleavage is 1.71.

Consider U38C A51G U97C U108C, for which the self-cleavage was 0.02.

For U39C C71U A94G, the self-cleavage was 0.36.

As to U39C A66G A94G, the self-cleavage turned out to be 1.64.

Regarding U38C A66U U72A, the self-cleavage was determined as 0.04.

For U38C U49A A91G U130C, the self-cleavage amounted to 0.41.

For the variant C40U A82G A90C, the self-cleavage stood at 0.15.

For U38A U43A A60G A96G, the self-cleavage was 0.92.

Regarding U38C C107U U139G A140U, the self-cleavage was determined as 0.02.
